# PMC4336329 (PLoS ONE, 2015)
# About 2,200 (0.71%) of roughly 310,000 compounds showed an effect of 50% or more. Effects have a minus sign here. Some of the results follow.
# Biological target: human ether-à-go-go-related gene (hERG) potassium channel (human, UniProt Q12809)
# Experiment: primary screen, population patch clamp on CHO cells stably expressing hERG
# human ether-à-go-go-related gene (hERG) potassium channel, sequence (Q12809 whole entry, looked up): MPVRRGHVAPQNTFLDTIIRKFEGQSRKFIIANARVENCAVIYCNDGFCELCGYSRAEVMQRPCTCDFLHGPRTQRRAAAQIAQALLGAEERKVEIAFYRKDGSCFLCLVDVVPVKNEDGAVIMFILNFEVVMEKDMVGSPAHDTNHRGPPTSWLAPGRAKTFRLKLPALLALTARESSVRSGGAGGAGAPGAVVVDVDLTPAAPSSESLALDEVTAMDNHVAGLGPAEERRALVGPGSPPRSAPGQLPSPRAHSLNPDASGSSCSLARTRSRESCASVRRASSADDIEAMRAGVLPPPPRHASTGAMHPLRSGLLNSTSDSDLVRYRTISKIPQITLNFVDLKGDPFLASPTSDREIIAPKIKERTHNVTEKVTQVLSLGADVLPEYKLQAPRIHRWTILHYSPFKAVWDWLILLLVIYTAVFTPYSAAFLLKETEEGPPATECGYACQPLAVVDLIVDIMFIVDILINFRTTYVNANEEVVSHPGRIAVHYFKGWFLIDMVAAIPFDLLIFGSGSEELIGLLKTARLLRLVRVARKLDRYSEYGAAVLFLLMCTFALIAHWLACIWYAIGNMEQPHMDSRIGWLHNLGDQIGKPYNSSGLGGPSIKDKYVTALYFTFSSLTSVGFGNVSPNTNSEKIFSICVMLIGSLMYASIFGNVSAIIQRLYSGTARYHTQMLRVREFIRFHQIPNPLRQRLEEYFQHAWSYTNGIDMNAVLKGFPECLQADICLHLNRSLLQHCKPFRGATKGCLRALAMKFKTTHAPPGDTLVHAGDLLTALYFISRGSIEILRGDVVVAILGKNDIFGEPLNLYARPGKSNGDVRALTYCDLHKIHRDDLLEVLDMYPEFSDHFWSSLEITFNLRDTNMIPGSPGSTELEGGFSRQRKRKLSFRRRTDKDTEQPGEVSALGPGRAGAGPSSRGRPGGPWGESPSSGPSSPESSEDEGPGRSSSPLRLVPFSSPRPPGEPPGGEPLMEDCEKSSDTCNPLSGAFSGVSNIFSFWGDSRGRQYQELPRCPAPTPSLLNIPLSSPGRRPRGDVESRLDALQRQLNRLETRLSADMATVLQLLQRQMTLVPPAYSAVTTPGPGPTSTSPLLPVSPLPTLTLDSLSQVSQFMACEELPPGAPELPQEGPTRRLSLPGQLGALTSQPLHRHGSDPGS
row,SMILES,"hERG current change (%, negative = inhibition) at 1uM"
1,CCOC(=O)c1cc(Sc2ccccc2N)cc(C(=O)OCC)n1,12.2%
2,COc1ccc(-c2cc(=O)[nH][nH]2)cc1OC,8.27%
3,O=C(CSC1c2ccccc2-c2ccccc21)N/N=C/c1ccccc1,23.1%
4,CS(=O)(=O)c1ccc(Cl)c(NC(=O)Cc2c(Cl)cccc2Cl)c1,-2.12%
5,CCCCc1cc(=O)oc2cc(OCC(=O)NCCN3CCOCC3)ccc12,3.6%
6,Cc1cc(NC(=O)CSc2nc3ccsc3c(=O)n2CCCCC(=O)O)no1,-3.24%
7,O=C(CC(c1ccccc1)c1cc(Cl)ccc1O)N1CCCC1 (centres unmarked),7.53%
8,O=C(CC(C(=O)O)c1ccc(Cl)cc1)c1ccccc1 (centres unmarked),8.25%
9,COc1ccc(Cc2nnc(SCC(=O)c3c(N)n(C4CC4)c(=O)[nH]c3=O)o2)cc1,2.58%
10,O=C(CCc1ccccc1)NNC(=O)Cc1ccccc1,15.4%
11,Cc1ccc(NC(=O)CCc2nnc3ccc(N4CCOCC4)nn23)cc1C,-7.73%
12,COc1cccc(-c2cn3nc(C)c(C)nc3n2)c1,9.08%
13,COc1ccc(NC(=O)CN(C)C(=O)c2cccc(NS(=O)(=O)c3ccc(Br)cc3)c2)cc1,13.8%
14,O=c1c2ccccc2cnn1-c1ccc(Br)cc1,9.07%
15,CCCc1nc2oc3c(NCCOCCO)ncnc3c2c2c1COC(C)(C)C2,0.359%
16,CC(NS(=O)(=O)c1cccc(S(=O)(=O)c2ccccc2)c1)C(=O)O (centres unmarked),7.71%
17,CCOC(=O)C1=C(CN2CCN(C(=O)c3ccco3)CC2)NC(=O)NC1c1ccc(OC(C)C)cc1 (centres unmarked),-20%
18,COc1ccc(C(=O)OCC(=O)NC(=O)CCSc2ccccc2)cc1,6.46%
19,CC(C(=O)Nc1ccc(F)c(F)c1F)N(C)Cc1cccs1 (centres unmarked),13.5%
20,CC(C)OCc1c(C(=O)Nc2nccs2)oc2ccccc12,1.77%
21,Cc1nc2ccc(F)cc2cc1C(=O)NC(C)C,7.69%
22,CCOc1nc(NCCN2CCOCC2)nc(Nc2ccc([N+](=O)[O-])cc2)n1,-45.8%

row,SMILES,"hERG current change (%, negative = inhibition) at 1uM"
1,CC(C)c1nc2cc(C(=O)N3CCNC(=O)C3c3ccc(F)cc3)ccc2o1 (centres unmarked),15.2%
2,O=C(O)C(Cc1ccc(O)cc1)N1C(=O)C2CCCCC2C1=O (centres unmarked),12.3%
3,Cc1cc(CNC(=O)C2CCC(=O)N(Cc3ccccc3F)C2)nn1C (centres unmarked),13.9%
4,O=C(c1ccoc1)N1CCCC(CO)(CCCc2ccccc2)C1 (centres unmarked),2.26%
5,Cc1cc(C)n(-c2nc(NCc3cccnc3)c3c4c(sc3n2)COC(C)(C)C4)n1,-3.94%
6,Cc1cc(C)nc(N2CCC(C(=O)NCCc3ccc(Cl)cc3)CC2)n1,12%
7,CC1=NNC(=O)C1CCC(=O)N/N=C/c1ccc(C)cc1 (centres unmarked),3.83%
8,CCOc1cc(NC(=S)NCCOC)c(OCC)cc1NC(=O)c1cccs1,0.447%
9,O=C(O)c1cc(S(=O)(=O)N(Cc2ccccc2)c2ccccc2)ccc1Cl,12.7%
10,COC(=O)N1N=C(c2ccccc2)CC1(O)C(F)(F)F (centres unmarked),14.8%
11,O=C(CN1C(=O)NC(Cc2c[nH]c3ccccc23)C1=O)Nc1ccccc1Br (centres unmarked),6.08%
12,C[N+]1(C)[C@@H]2CC(OC(=O)[C@H](CO)c3ccccc3)C[C@H]1[C@@H]1O[C@@H]12.[Br-] (some centres unmarked),18.5%
13,COc1ccc(S(=O)(=O)N2CCC(N3CCCCC3)CC2)cc1,-1.84%
14,COc1ccc(OCc2cc(C(=O)N3CCCC(OC)C3)no2)c2ccccc12 (centres unmarked),16.6%
15,COc1ccc(CCNC(=O)CN(C2CCCCC2)S(C)(=O)=O)cc1OC,4.82%
16,CCOC(=O)c1c(O)c2ccccc2n(-c2ccccc2)c1=O,8.68%
17,COC(=O)C(C)Sc1nc2c(cnn2-c2ccc(Cl)cc2)c(=O)[nH]1 (centres unmarked),13.4%
18,COc1cc(OC)c(NC(=O)N2CCOCC2)cc1Cl,4.51%
19,COC(=O)c1ccc(OCCCCN(C)Cc2ccccc2)cc1.O=C(O)C(=O)O,9.79%
20,S=C(NCC1CCCO1)Nc1cccc2ccccc12 (centres unmarked),21.3%
21,O=C(O)c1ccc(NC2OC[C@@H](O)[C@H](O)[C@H]2O)cc1 (some centres unmarked),2.67%
22,c1ccc(C2=Nn3c(nnc3-c3cc(-c4ccccc4)n[nH]3)SC2)cc1,13%
